Results on 86 sequences are retold here after the supplement of paper PMC3334620.

Over roughly 33,000 sequences, “E-score (-0.5 to 0.5)” has its median near -0.054; the highest 2% begin near 0.35. Some of the results follow.

The target in the test is T1, Stb5 (UniProt P38699).
T1 sequence: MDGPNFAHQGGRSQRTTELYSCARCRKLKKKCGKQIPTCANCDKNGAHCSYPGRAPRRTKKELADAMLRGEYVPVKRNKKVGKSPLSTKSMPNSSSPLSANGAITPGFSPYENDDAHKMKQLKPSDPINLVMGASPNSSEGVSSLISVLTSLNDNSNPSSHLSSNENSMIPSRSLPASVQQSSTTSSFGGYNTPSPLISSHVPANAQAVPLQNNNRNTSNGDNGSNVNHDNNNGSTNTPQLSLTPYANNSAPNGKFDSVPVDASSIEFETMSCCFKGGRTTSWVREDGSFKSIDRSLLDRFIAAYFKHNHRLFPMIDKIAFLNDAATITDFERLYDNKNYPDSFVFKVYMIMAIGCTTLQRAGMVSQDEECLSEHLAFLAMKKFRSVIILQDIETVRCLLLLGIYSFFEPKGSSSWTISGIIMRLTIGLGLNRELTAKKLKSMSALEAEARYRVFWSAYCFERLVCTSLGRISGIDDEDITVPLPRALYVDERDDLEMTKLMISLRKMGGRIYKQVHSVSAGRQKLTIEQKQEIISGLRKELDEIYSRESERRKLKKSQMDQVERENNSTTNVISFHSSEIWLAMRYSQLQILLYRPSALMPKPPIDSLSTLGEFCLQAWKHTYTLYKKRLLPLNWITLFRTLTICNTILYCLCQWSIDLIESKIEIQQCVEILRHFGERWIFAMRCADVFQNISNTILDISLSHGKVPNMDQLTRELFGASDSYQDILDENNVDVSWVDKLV
The test can be described thus: PBM E-score (8-mer binding enrichment) (E-score (-0.5 to 0.5)); higher = stronger / more preferred TF binding; most listed sequences are background and not binding sites. The conditions noted are these: protein concentration: 200 nM; construct: GST-full length. Put shortly:
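Each ungapped eight-base word and its reverse complement, pooled, received an E-score from the Universal PBM Analysis Suite. Underlying scans, normalised with masliner, recorded fluorescent anti-GST bound to GST-tagged yeast transcription factors. These were applied at about 100-200 nM to universal all-10-mer Agilent arrays double-stranded by primer extension.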
Consider ACCTCGCC, for which the “PBM E-score” value is -0.0314.
Take AAAACTGG: the “PBM E-score” value amounted to 0.0365.
Regarding TATACATA, the “PBM E-score” value is -0.127.
In the case of CGAAGCAC it was -0.0541; in that of ACAGCACT, -0.196.
With CAATGTTA, the “PBM E-score” value was -0.219.
On to CGGGACAC, for which the “PBM E-score” value was found to be 0.195.
Turning to GCTTTCTA, the “PBM E-score” value amounted to 0.0335.
Then CGTCGTTA, with 0.0819; and AACTAATT, with -0.029; and CACACAAG, with -0.231.
With GGCGACCA, the “PBM E-score” value is -0.0929.
Regarding GGCTGTTA, the “PBM E-score” value worked out at 0.0531.
As to GTAGAACA, the “PBM E-score” value was -0.0782.
Consider CGTCGAGC, for which the “PBM E-score” value came out at 0.0731.
In the case of TAACCCAA it was -0.106; in that of TCATGGCA, -0.0568.
As to AGTAAGGA, the “PBM E-score” value was -0.2.
With CCCAATTC, the “PBM E-score” value is -0.123.
Consider GGCAGGGA, for which the “PBM E-score” value was -0.241.
In the case of CAATCGCG it was 0.00418; in that of ACGCGACC, -0.121; in that of ACGCCTGA, -0.11.
For GTGACTTA, the “PBM E-score” value was -0.139.
Consider CATTTGGC, for which the “PBM E-score” value was -0.247.
In the case of TATGCGCA it was -0.115; in that of AAGGTAAG, -0.115; in that of ATGACTTC, -0.221.
As to GACGGCAA, the “PBM E-score” value turned out to be 0.285.
As for CGCAAGCC, the “PBM E-score” value is -0.00333.
In the case of ACTTTCCT, the “PBM E-score” value was -0.128.
Regarding AGTGCGTG, the “PBM E-score” value is -0.1.
As to GCATCGCC, the “PBM E-score” value is -0.00466.
With GACCGAAC, the “PBM E-score” value is 0.145.
Take ATGAGACA: the “PBM E-score” value is -0.132.
For GGCAAAGA, the “PBM E-score” value was -0.0708.
As for GAGTGGCC, the “PBM E-score” value is -0.0356.
Then AATGGTTC, with 0.00524.
For ACACGTCG, the “PBM E-score” value came out at 0.0556.
Consider AACCGAGT, for which the “PBM E-score” value was -0.0243.
As for CAAAGCTG, the “PBM E-score” value is -0.12.
On to AAGGTTAT, for which the “PBM E-score” value turned out to be 0.0152.
Take CCTGCGTA: the “PBM E-score” value is -0.0568.
AACTGTTA: the “PBM E-score” value is -0.0903.
Turning to AGTAGTAC, the “PBM E-score” value stood at 0.00883.
On to CAATAAGC, for which the “PBM E-score” value turned out to be 0.153.
For GGCATACC, the “PBM E-score” value was found to be 0.0408.
For ATATGAGC, the “PBM E-score” value is -0.113.
On to CACCCATG, for which the “PBM E-score” value is -0.068.
Turning to CACTACTA, the “PBM E-score” value was -0.117.
Regarding ATTCGCAA, the “PBM E-score” value is -0.192.
In the case of AAAGGCAA it was -0.151; in that of GGGGTCTA, 0.165.
As to GTATCCCA, the “PBM E-score” value was -0.0728.
For GCATAGCA, the “PBM E-score” value was -0.0674.
Then AGGTGCAC, with -0.177; and AAGTTTAT, with 0.134; and GACCTTGC, with -0.0867.
For CCGCAAGA, the “PBM E-score” value is 0.11.
Regarding AGATCATA, the “PBM E-score” value came to 0.0528.
As to ACAGAAAA, the “PBM E-score” value was -0.0129.
Then AAACTCCT, with 0.0448.
As for AATATAGA, the “PBM E-score” value was 0.0314.
In the case of TCGATTCA, the “PBM E-score” value is -0.0647.
Then CCTCATCA, with -0.276.
On to ATCTCTCG, for which the “PBM E-score” value is -0.00656.
Consider GTTACAGA, for which the “PBM E-score” value is -0.242.
Regarding ATACGAAT, the “PBM E-score” value is -0.191.
Turning to CCCACGCC, the “PBM E-score” value is -0.111.
Then ACCGTTAC, with 0.175.
For GACGCCTC, the “PBM E-score” value is -0.322.
In the case of GGGAATTA, the “PBM E-score” value turned out to be 0.164.
For CACTCTAA, the “PBM E-score” value was -0.149.
In the case of CATTATAG, the “PBM E-score” value worked out at 0.111.
As to GCAGTTAC, the “PBM E-score” value turned out to be 0.116.
For the sequence CGAATGAC, the “PBM E-score” value is -0.0769.
With GTAAAGAA, the “PBM E-score” value was 0.0288.
For the sequence CATTTAAG, the “PBM E-score” value is -0.28.
Consider CGTAGCTC, for which the “PBM E-score” value stood at 0.0462.
AAGAAGGC: the “PBM E-score” value is -0.14.
With GGCAGGAC, the “PBM E-score” value is 0.0272.
In the case of GAACGACA it was -0.144.
For GCCTCCCA, the “PBM E-score” value amounted to 0.0019.
Turning to CATAATGC, the “PBM E-score” value was 0.208.
Then CACTGTAC, with -0.252; and ACGTTGCT, with -0.127.
